Laboratory results published in the supplement of paper PMC8728848.
The list shows a part of the results.

Tests used:
Experiment in all cases: glycan array binding signal (z-score within array); higher = stronger binding
Settings in all cases: glycan notation: IUPAC condensed, linker removed
[1] = biological target: GalNAc(b1-4)GlcNAc(b1-2)Man
Method in brief: (§1)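 Glycan array data were curated from 3228 arrays in the Consortium for Functional Glycomics database and kept only where the protein sequence was available. Glycan names were converted to IUPAC-condensed notation, and columns mapping to the same glycan were averaged. The binding signal is a within-array Z-score, averaged across arrays of the same protein sequence at different concentrations or buffers and across linkers. Negative Z-scores can be read as non-binding.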

[2] = biological target: GalNAc(b1-4)GlcNAc(b1-2)Man(a1-3)[GalNAc(b1-4)GlcNAc(b1-2)Man(a1-6)]Man(b1-4)GlcNAc(b1-4)GlcNAc
Method in brief: as §1

[3] = biological target: GalNAc(b1-4)GlcNAc(b1-3)GalNAc(b1-4)GlcNAc
Method in brief: as §1

[4] = biological target: GalNAc(b1-4)GlcNAc6S
Method in brief: as §1

[5] = biological target: GalNAc(b1-6)GalNAc
Method in brief: as §1

[6] = biological target: GalNAc3S(b1-4)GlcNAc
Method in brief: as §1

[7] = biological target: GalNAc3S(b1-4)GlcNAc3S
Method in brief: as §1

[8] = biological target: GalNAc3S(b1-4)[Fuc(a1-3)]GlcNAc
Method in brief: as §1

[9] = biological target: GalNAc4S6S(b1-4)GlcNAc
Method in brief: as §1

[10] = biological target: GalNAc6S(b1-4)GlcNAc
Method in brief: as §1

[11] = biological target: Glc(a1-4)Glc
Method in brief: as §1

[12] = biological target: Glc(a1-4)Glc(a1-4)Glc(a1-4)Glc
Method in brief: as §1

[13] = biological target: Glc(a1-6)Glc(a1-6)Glc
Method in brief: as §1

[14] = biological target: Glc(a1-6)Glc(a1-6)Glc(a1-6)Glc
Method in brief: as §1

[15] = biological target: Glc(b1-4)Glc
Method in brief: as §1

[16] = biological target: Glc(b1-6)Glc
Method in brief: as §1

[17] = biological target: GlcA(b1-3)Gal
Method in brief: as §1

[18] = biological target: GlcA(b1-3)GlcNAc
Method in brief: as §1

[19] = biological target: GlcA(b1-6)Gal
Method in brief: as §1

[20] = biological target: GlcA3S(b1-3)Gal(b1-4)GlcNAc(b1-2)Man
Method in brief: as §1

[21] = biological target: GlcA3S(b1-3)Gal(b1-4)GlcNAc(b1-3)Gal(b1-4)Glc
Method in brief: as §1

[22] = biological target: GlcNAc(a1-3)Gal(b1-4)GlcNAc
Method in brief: as §1

[23] = biological target: GlcNAc(a1-4)Gal(b1-3)GlcNAc
Method in brief: as §1

[24] = biological target: GlcNAc(a1-4)Gal(b1-4)GalNAc
Method in brief: as §1

[25] = biological target: GlcNAc(a1-4)Gal(b1-4)GlcNAc
Method in brief: as §1

[26] = biological target: GlcNAc(a1-4)Gal(b1-4)GlcNAc(b1-3)Gal(b1-4)Glc
Method in brief: as §1

[27] = biological target: GlcNAc(a1-4)Gal(b1-4)GlcNAc(b1-3)Gal(b1-4)GlcNAc
Method in brief: as §1

[28] = biological target: GlcNAc(a1-4)Gal(b1-4)GlcNAc(b1-3)Gal(b1-4)GlcNAc(b1-3)Gal(b1-4)GlcNAc
Method in brief: as §1

[29] = biological target: GlcNAc(a1-4)Gal(b1-4)GlcNAc(b1-3)Gal(b1-4)[Fuc(a1-3)]GlcNAc(b1-3)Gal(b1-4)[Fuc(a1-3)]GlcNAc
Method in brief: as §1

[30] = biological target: GlcNAc(a1-6)Gal(b1-4)GlcNAc
Method in brief: as §1

[31] = biological target: GlcNAc(b1-2)Gal(b1-3)GalNAc
Method in brief: as §1

[32] = biological target: GlcNAc(b1-2)Man(a1-3)[GlcNAc(b1-2)Man(a1-6)]Man(b1-4)GlcNAc(b1-4)GlcNAc
Method in brief: as §1

[33] = biological target: GlcNAc(b1-2)Man(a1-3)[GlcNAc(b1-2)Man(a1-6)]Man(b1-4)GlcNAc(b1-4)[Fuc(a1-6)]GlcNAc
Method in brief: as §1

[34] = biological target: GlcNAc(b1-2)Man(a1-3)[GlcNAc(b1-4)][GlcNAc(b1-2)Man(a1-6)]Man(b1-4)GlcNAc(b1-4)GlcNAc
Method in brief: as §1

[35] = biological target: GlcNAc(b1-2)Man(a1-3)[GlcNAc(b1-4)][GlcNAc(b1-2)Man(a1-6)]Man(b1-4)GlcNAc(b1-4)[Fuc(a1-6)]GlcNAc
Method in brief: as §1

[36] = biological target: GlcNAc(b1-2)[GlcNAc(b1-4)]Man(a1-3)[GlcNAc(b1-2)Man(a1-6)]Man(b1-4)GlcNAc(b1-4)GlcNAc
Method in brief: as §1

[37] = biological target: GlcNAc(b1-2)[GlcNAc(b1-4)]Man(a1-3)[GlcNAc(b1-4)][GlcNAc(b1-2)Man(a1-6)]Man(b1-4)GlcNAc(b1-4)GlcNAc
Method in brief: as §1

[38] = biological target: GlcNAc(b1-2)[GlcNAc(b1-4)]Man(a1-3)[GlcNAc(b1-4)][GlcNAc(b1-2)[GlcNAc(b1-6)]Man(a1-6)]Man(b1-4)GlcNAc(b1-4)GlcNAc
Method in brief: as §1

[39] = biological target: GlcNAc(b1-2)[GlcNAc(b1-4)]Man(a1-3)[GlcNAc(b1-4)][GlcNAc(b1-2)[GlcNAc(b1-6)]Man(a1-6)]Man(b1-4)GlcNAc(b1-4)[Fuc(a1-6)]GlcNAc
Method in brief: as §1

[40] = biological target: GlcNAc(b1-2)[GlcNAc(b1-6)]Man(a1-6)[GlcNAc(b1-2)Man(a1-3)]Man(b1-4)GlcNAc(b1-4)GlcNAc
Method in brief: as §1

[41] = biological target: GlcNAc(b1-2)[GlcNAc(b1-6)]Man(a1-6)[GlcNAc(b1-2)Man(a1-3)]Man(b1-4)GlcNAc(b1-4)[Fuc(a1-6)]GlcNAc
Method in brief: as §1

[42] = biological target: GlcNAc(b1-2)[GlcNAc(b1-6)]Man(a1-6)[GlcNAc(b1-4)][GlcNAc(b1-2)Man(a1-3)]Man(b1-4)GlcNAc(b1-4)GlcNAc
Method in brief: as §1

[43] = biological target: GlcNAc(b1-3)Fuc
Method in brief: as §1

[44] = biological target: GlcNAc(b1-3)Gal
Method in brief: as §1

[45] = biological target: GlcNAc(b1-3)Gal(b1-3)GalNAc
Method in brief: as §1

B1: RBMC1 (Vibrio cholerae) (protein)
chain: QQSQRVVTADNLMYLRSGFAIDAIGTTVNNLVGGPVQGTNGGVLRAPIALDQLQSVEVTSGLYNWGGYHIVAIKFTMKDGSSVLLGSTHYASNKKVETYTVPQGKRIKQINVWTGGWLVEGFQFVY
- glycan array binding signal (z-score) [1]: -0.257
- glycan array binding signal (z-score) [2]: 2.2
- glycan array binding signal (z-score) [3]: 0.074
- glycan array binding signal (z-score) [4]: -0.343
- glycan array binding signal (z-score) [5]: -0.432
- glycan array binding signal (z-score) [6]: -0.379
- glycan array binding signal (z-score) [7]: -0.407
- glycan array binding signal (z-score) [8]: -0.393
- glycan array binding signal (z-score) [9]: -0.328
- glycan array binding signal (z-score) [10]: -0.324
- glycan array binding signal (z-score) [11]: -0.216
- glycan array binding signal (z-score) [12]: -0.286
- glycan array binding signal (z-score) [13]: -0.21
- glycan array binding signal (z-score) [14]: -0.066
- glycan array binding signal (z-score) [15]: -0.246
- glycan array binding signal (z-score) [16]: -0.413
- glycan array binding signal (z-score) [17]: -0.211
- glycan array binding signal (z-score) [18]: -0.377
- glycan array binding signal (z-score) [19]: -0.35
- glycan array binding signal (z-score) [20]: -0.37
- glycan array binding signal (z-score) [21]: -0.217
- glycan array binding signal (z-score) [22]: -0.39
- glycan array binding signal (z-score) [23]: -0.355
- glycan array binding signal (z-score) [24]: -0.014
- glycan array binding signal (z-score) [25]: -0.349
- glycan array binding signal (z-score) [26]: -0.284
- glycan array binding signal (z-score) [27]: -0.142
- glycan array binding signal (z-score) [28]: -0.335
- glycan array binding signal (z-score) [29]: -0.01
- glycan array binding signal (z-score) [30]: -0.273
- glycan array binding signal (z-score) [31]: -0.185
- glycan array binding signal (z-score) [32]: 1.81
- glycan array binding signal (z-score) [33]: 0.419
- glycan array binding signal (z-score) [34]: -0.075
- glycan array binding signal (z-score) [35]: -0.214
- glycan array binding signal (z-score) [36]: 0.957
- glycan array binding signal (z-score) [37]: -0.109
- glycan array binding signal (z-score) [38]: -0.345
- glycan array binding signal (z-score) [39]: -0.26
- glycan array binding signal (z-score) [40]: -0.265
- glycan array binding signal (z-score) [41]: -0.256
- glycan array binding signal (z-score) [42]: -0.405
- glycan array binding signal (z-score) [43]: -0.337
- glycan array binding signal (z-score) [44]: -0.336
- glycan array binding signal (z-score) [45]: -0.195
